Like-named read-outs stand apart in the source and are kept apart here.

We go through 2 molecules from US20160052983A1 (ALKERMES, published 2016).

The target in test [1] is T1, IL-1RI_Fc (fusion protein), immobilized mouse IL1RI receptor (mouse, UniProt P13504 20-338, limits assumed).
T1 construct: not shown: Fc part; captured with the Human Antibody Capture Kit
T1 sequence (looked up): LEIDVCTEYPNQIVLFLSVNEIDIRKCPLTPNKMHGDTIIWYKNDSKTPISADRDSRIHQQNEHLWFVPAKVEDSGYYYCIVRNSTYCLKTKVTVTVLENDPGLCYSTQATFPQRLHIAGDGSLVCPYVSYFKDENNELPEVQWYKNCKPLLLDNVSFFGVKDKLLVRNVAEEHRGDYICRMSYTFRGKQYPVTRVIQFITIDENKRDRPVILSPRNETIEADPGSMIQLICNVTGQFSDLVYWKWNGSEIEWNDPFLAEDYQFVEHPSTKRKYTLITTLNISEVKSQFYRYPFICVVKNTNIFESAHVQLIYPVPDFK
Kind of test: SPR (Biacore), IL-1RI_Fc captured on the chip with the Human Antibody Capture Kit, analyte injected at 5 rising concentrations from 0.24 to 20 nM. On the technique in general: Surface plasmon resonance follows binding to a sensor surface in real time, without labels.

Test [2] concerns the target T1, IL-1RI_Fc (fusion protein), immobilized …. Described as above. The source holds these as a separate data set.

B1: RDB1815 (IL-1Ra fused to 8 MUC20 tandem repeats, C-terminal His-tag) (other)
chain: [letters of about 150 residues not shown]GGGGSASSESSASSDGPHPVITESRASSESSASSDGPHPVITESRGGGGSASSESSASSDGPHPVITESRASSESSASSDGPHPVITESRGGGGSASSESSASSDGPHPVITESRASSESSASSDGPHPVITESRGGGGSASSESSASSDGPHPVITESRASSESSASSDGPHPVITESRGSSHHHHHH
notes: Expressed in CHO cells and heavily glycosylated on the mucin domain; also called IL1Ra 8TR; 8TR
Consider B1, for which, in test [1], the koff stood at 0.00014 s⁻¹ and the kon was 850000 M⁻¹ s⁻¹.

B2: RDB1816 (IL-1Ra fused to 12 MUC20 tandem repeats, C-terminal His-tag) (other)
chain: [letters of about 150 residues not shown]GGGGSASSESSASSDGPHPVITESRASSESSASSDGPHPVITESRGGGGSASSESSASSDGPHPVITESRASSESSASSDGPHPVITESRGGGGSASSESSASSDGPHPVITESRASSESSASSDGPHPVITESRGGGGSASSESSASSDGPHPVITESRASSESSASSDGPHPVITESRGGGGSASSESSASSDGPHPVITESRASSESSASSDGPHPVITESRGGGGSASSESSASSDGPHPVITESRASSESSASSDGPHPVITESRGSSHHHHHH
notes: Expressed in CHO cells and heavily glycosylated on the mucin domain; also called IL1Ra 12TR; 12TR
For B2, in test [2], the koff was found to be 0.00014 s⁻¹ and the kon turned out to be 150000 M⁻¹ s⁻¹.

The koff is the first-order rate constant of dissociation. For orientation: kon means the rate constant with which the complex forms. Read a low kon as slower complex formation.
